Hit rate of the full screen: of about 350,000 compounds, about 31,000 (8.9%) were called active. Inconclusive results, whose numbers are uncertain, are shown with a selection of clear calls. Calls follow the shape of the dose curve; as a rule, active = well fitted inhibition curve with a large enough effect; inconclusive = small, poorly fitted or top-dose-only effect; inactive = no such curve, though single readings can be large or run the other way. A potency beside an inconclusive call is a rough fit, not a confirmed value.
Target: Histone-lysine N-methyltransferase EHMT2 (Homo sapiens) (UniProt Q96KQ7)
Assay: qHTS Assay for Inhibitors of Histone Lysine Methyltransferase G9a; also: nearly all actives have a fitted effect of over 75% in size
Conditions: G9a H3K9 monomethylation, AlphaScreen, 2 h; activity, negative = inhibition: at 59 µM (top of the series) unless noted
Outline: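 Compounds were preincubated with 20 nM G9a for 15 min, after which biotinylated H3K9 peptide (500 nM) and SAM (20 uM) started a 2 h room-temperature reaction. Monomethylated product was quantified by antibody-based AlphaScreen chemiluminescence.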
% is scaled to controls: 0 for no effect and ±100 for the full control effect; potency is read from the fitted curve at half-maximal effect; tags tell the direction and shape of the fitted curve.

Sequence of UniProt Q96KQ7 (Q96KQ7 whole entry, looked up): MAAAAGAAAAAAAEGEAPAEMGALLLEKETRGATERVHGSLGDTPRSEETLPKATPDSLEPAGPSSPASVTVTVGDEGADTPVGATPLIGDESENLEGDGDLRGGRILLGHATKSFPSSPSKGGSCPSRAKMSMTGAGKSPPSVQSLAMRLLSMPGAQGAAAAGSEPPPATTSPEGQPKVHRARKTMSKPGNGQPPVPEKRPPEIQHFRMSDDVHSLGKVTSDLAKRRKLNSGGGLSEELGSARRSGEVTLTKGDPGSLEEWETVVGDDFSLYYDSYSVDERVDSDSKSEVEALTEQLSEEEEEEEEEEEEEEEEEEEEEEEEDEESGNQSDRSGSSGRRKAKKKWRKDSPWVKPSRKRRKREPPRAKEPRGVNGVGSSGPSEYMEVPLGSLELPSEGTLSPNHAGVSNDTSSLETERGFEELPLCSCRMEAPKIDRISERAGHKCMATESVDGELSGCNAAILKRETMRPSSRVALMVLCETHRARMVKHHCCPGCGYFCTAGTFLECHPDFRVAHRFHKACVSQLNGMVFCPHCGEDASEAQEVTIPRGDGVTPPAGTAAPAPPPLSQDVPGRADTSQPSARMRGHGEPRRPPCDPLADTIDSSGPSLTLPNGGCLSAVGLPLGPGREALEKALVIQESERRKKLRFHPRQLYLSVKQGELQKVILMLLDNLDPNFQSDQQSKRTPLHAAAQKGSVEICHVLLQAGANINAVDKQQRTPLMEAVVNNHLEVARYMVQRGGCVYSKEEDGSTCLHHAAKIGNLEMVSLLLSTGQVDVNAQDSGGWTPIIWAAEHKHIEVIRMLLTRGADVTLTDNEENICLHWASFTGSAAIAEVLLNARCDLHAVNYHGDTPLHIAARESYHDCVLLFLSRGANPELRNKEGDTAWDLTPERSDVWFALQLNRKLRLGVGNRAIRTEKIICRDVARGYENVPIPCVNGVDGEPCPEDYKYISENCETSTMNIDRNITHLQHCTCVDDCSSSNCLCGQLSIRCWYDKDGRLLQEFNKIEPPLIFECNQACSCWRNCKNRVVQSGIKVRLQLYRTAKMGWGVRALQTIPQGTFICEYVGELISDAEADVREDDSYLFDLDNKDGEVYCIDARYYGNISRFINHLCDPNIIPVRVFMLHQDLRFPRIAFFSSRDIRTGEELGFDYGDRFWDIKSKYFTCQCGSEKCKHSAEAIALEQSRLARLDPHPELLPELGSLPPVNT

Row | SMILES | Potency | activity, negative = inhibition
1 | C=CCc1cc(OC)ccc1OCCN(C)Cc1ccccc1 | active: 12.6 µM | –
2 | N#C/C(=C(/O)c1ccc(Br)s1)c1nc2ccccc2[nH]1 | inactive | –
3 | O=C(Nc1ccccc1)c1cnc2n(c1=O)CCS2 | active: 50.1 µM | –
4 | O=C1C2CC=C(Cl)CC2C(=O)N1CC1OCCc2ccccc21 (stereo not given) | inconclusive: 3.16 µM [inhibitor, single point] | –
5 | CSCC[C@H](NC(=O)[C@H]1N2C(=O)c3ccccc3C2SC1(C)C)C(=O)NCc1ccncc1 (stereo not given in full) | inconclusive: 89.1 µM [inhibitor, single point] | –
6 | COc1ccccc1N1CC(C(=O)OCc2nc(N)nc(Nc3ccccc3)n2)CC1=O (stereo not given) | inconclusive: 5.01 µM [inhibitor, single point] | –
7 | Cc1cc(C(=O)COC(=O)c2ccc(O)cc2)c(C)n1-c1ccccc1F | inconclusive: 17.8 µM [inhibitor, full curve] | –
8 | Cc1cccc(-c2noc(CN(C(=O)C(c3ccccc3)c3ccccc3)C(C)C)n2)c1 | inconclusive: 89.1 µM [inhibitor, partial curve, poor fit] | –
9 | O=C(NCc1ccc(Cl)cc1Cl)c1ccc2nc[nH]c2c1 | inconclusive: 0.708 µM [inhibitor, full curve, poor fit] | –
10 | CCC(Sc1nc(-c2ccccc2)c(C#N)c(=O)[nH]1)C(=O)Nc1nnc(C)s1 (stereo not given) | – | inconclusive: -68.3% [inhibitor]
11 | CC1=NN(c2nc(-c3ccc(C)cc3)cs2)C(=O)C1N=Nc1cccc(O)c1 (stereo not given) | active: 39.8 µM | –
12 | Cc1cc(C(=O)NCC(c2ccco2)N(C)C)ccc1[N+](=O)[O-] (stereo not given) | inactive | –
13 | Cc1ccc(-n2cc[nH]c2=S)cc1C | inconclusive: 1 µM [inhibitor, full curve, poor fit] | –
14 | C[C@@H](NC(=O)c1nc[nH]c1C(=O)NCc1ccc(CNC(=O)OC(C)(C)C)cc1)c1ccccc1 | – | inactive: -3.29% [at 0.501 µM]
15 | Cc1ccc(C(C(=O)NC(C)(C)C)N(C(=O)c2csnn2)C2CC2)cc1 (stereo not given) | inconclusive: 7.08 µM [inhibitor, single point] | –
16 | CC(C)(C)NC(=O)CSc1nnc(C2CC2)n1Cc1ccccc1 | inactive | –
17 | CC(c1ccc(F)cc1)n1c(Cn2ncc3ccccc3c2=O)n[nH]c1=S (stereo not given) | inactive | –
18 | COc1cc(COCC(O)CN2CCOCC2)cc(OC)c1OC (stereo not given) | inconclusive: 89.1 µM [inhibitor, single point] | –
19 | CC(=O)c1c(C)oc2ccc(O)c(CN3CCOCC3)c12 | inconclusive: 5.62 µM [inhibitor, full curve, poor fit] | –
20 | CCc1ccc(N2C(=O)C3CCCN3C2=S)cc1 (stereo not given) | inconclusive: 89.1 µM [inhibitor, single point] | –
